Where “and” joins values, the source holds several entries; their conditions need not be identical. Identical values can stand only once. About 6,500 (4.3%) of roughly 150,000 compounds were called active. Inconclusive results, whose numbers are uncertain, are shown with a selection of clear calls. Calls come from the whole dose curve; as a rule, active = well fitted inhibition curve with a large enough effect (not every such curve was filed as active); inconclusive = small, poorly fitted or top-dose-only effect, or another doubt; inactive = no such curve, though single readings can be large or run the other way. No potency is given beside an inconclusive call; the fits are too rough.
biological target: 15-hydroxyprostaglandin dehydrogenase [NAD(+)] (Homo sapiens) (UniProt P15428); test: qHTS Assay for Inhibitors of HPGD (15-Hydroxyprostaglandin Dehydrogenase); details: purified HPGD, NADH fluorescence kinetic, PGE2 substrate; activity change, negative = inhibition: active compounds read low
How it was run: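 NADH formation kinetics: reaction with 30 uM PGE2 and 1 mM NAD+ (final), 20 nM enzyme, Tris-HCl pH 8 with Tween 20, after 15 min compound preincubation at room temperature. Fluorescence change, last versus first of five reads.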
% is set by controls: 0 for no effect and ±100 for the full control effect; potency is the fitted concentration of half-maximal effect; tags give direction and shape of the fitted curve.

Chain of UniProt P15428 (P15428 whole entry, looked up): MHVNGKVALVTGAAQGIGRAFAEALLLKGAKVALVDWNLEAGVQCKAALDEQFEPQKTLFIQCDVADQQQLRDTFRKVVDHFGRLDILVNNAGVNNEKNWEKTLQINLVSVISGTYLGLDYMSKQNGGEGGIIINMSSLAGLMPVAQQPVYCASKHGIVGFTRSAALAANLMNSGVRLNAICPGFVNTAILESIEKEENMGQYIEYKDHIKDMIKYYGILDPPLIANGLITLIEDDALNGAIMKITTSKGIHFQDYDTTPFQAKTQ

SMILES | Potency | activity change, negative = inhibition
O=C1NC(=O)N(CCC2=CCCCC2)C(=O)/C1=C/c1ccc(O)cc1 | active: 11.2 µM | –
CC1CCC(NC(=O)c2cc3c(=O)n(C)c4ccccc4c3n2C)CC1 (stereo not given) | inconclusive [inhibitor, single point] | –
O=C(N[C@H]1CN2CCC1CC2)c1ccc(Cl)cc1 | – | inactive: -4.64%
C=CCN1C(=O)NC(=O)/C(=C/c2ccoc2)C1=O | active: 25.1 µM | –
O=[N+]([O-])c1ccc2nc(N3CCNCC3)ccc2c1 | – | inactive: -15.6%
C[C@@]12Cc3cnc(-c4ccccc4)nc3C[C@@H]1CC[C@@H]1[C@H]3CC[C@@](C)(O)[C@]3(C)CC[C@@H]12 | – | inactive: -9.29%
[O-][Br+2]([O-])O | – | inactive: -2.13% and inactive: -7.66%
C[C@H]1CCCC(=O)CCC/C=C/c2cc(O)cc(O)c2C(=O)O1 | active: 11.2 µM and active: 14.1 µM | –
c1ccc2c(N3CCNCC3)cccc2c1 | inconclusive [inhibitor, single point] | –
NC(=O)c1ccc(C(=O)Nc2ccc([As](=O)(O)O)cc2)cc1 | – | inactive: -4.17%
COc1ccc2c(c1)c(CCN1CCOCC1)c(C)n2C(=O)c1cccc(Cl)c1Cl | active: 28.2 µM | –
CCCCC/C=C\C/C=C\C/C=C\C/C=C\CCCC(=O)Nc1ccc(O)cc1C | inconclusive [inhibitor, single point] | –
CCCCCCn1c(O)c(C=Nc2c(C)n(C)n(-c3ccccc3)c2=O)c(=O)[nH]c1=O | inconclusive [inhibitor, single point] | –
C/C(=N\Nc1ccccc1)c1c(O)n(Cc2ccccc2)c(=O)[nH]c1=O | active: 28.2 µM | –
CC[C@]1(O)C(=O)OCc2c1cc1n(c2=O)Cc2cc3ccccc3nc2-1 | inconclusive [inhibitor, full curve] | –
O=C(Nc1nnc(SCc2ccccc2Cl)s1)C1COc2ccccc2O1 (stereo not given) | active: 15.8 µM | –
COC(=O)c1ccc2ccn(CC(=O)NC(C)C)c2c1 | inconclusive [inhibitor, partial curve] | –
CCOC(=O)c1c(NC(=O)C(c2ccccc2)c2ccccc2)sc2c1C1CCN2CC1 | inconclusive [inhibitor, partial curve] | –
c1cc2ccc3cccc4ccc(c1)c2c34 | inconclusive [inhibitor, partial curve] | –
Cc1cc(/C=C2/C(=O)NC(=O)N(Cc3ccco3)C2=O)c(C)n1-c1ccccc1 | inconclusive [inhibitor, single point] | –
